In PubChem BioAssay AID1030 (National Center for Advancing Translational Sciences (NCATS), 2008):
In all, about 220,000 compounds went through this assay and about 16,000 (7.3%) were called active. The shares of active, inactive and inconclusive entries below differ from those in the screen. Calls follow the shape of the dose curve; as a rule, active = well fitted inhibition curve with a large enough effect (not every such curve was filed as active); inconclusive = small, poorly fitted or top-dose-only effect, or another doubt; inactive = no such curve, though single readings can be large or run the other way. No potency is given beside an inconclusive call; the fits are too rough.

These molecules were tested against Aldehyde dehydrogenase 1A1 (Homo sapiens) (UniProt P00352) (assay: qHTS Assay for Inhibitors of Aldehyde Dehydrogenase 1 (ALDH1A1)). Details: Purified ALDH1A1, NADH fluorescence, propionaldehyde substrate; series mostly up to 75.3 µM.
Sequence of UniProt P00352 (P00352 whole entry, looked up): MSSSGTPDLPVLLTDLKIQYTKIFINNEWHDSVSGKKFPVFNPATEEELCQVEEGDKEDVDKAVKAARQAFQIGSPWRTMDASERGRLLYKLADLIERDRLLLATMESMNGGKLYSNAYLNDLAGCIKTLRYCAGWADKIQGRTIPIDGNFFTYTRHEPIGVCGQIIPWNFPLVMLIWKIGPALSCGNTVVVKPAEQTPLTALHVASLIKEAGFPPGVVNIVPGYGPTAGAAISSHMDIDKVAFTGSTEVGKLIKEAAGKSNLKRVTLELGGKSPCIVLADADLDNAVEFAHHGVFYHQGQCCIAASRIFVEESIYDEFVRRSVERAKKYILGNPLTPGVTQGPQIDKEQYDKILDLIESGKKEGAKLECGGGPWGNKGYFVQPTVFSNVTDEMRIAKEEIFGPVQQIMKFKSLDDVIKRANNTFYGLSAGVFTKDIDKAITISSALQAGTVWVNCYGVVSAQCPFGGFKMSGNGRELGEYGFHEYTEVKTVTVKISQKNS
Potency is read from the fitted curve at half-maximal effect; tags tell the direction and shape of the fitted curve.

Structure (SMILES) | Potency
COc1ccc(Sc2nnc(Cc3ccccc3)c3ccccc23)cc1 | inconclusive [inhibitor, single point]
CC1(C)Cc2c(sc3c2c(N)nc(=S)n3Cc2ccccc2)CO1 | inconclusive [inhibitor, full curve]
Cc1ccc(S(=O)(=O)NNC(=O)c2cccc(O)c2)cc1 | inactive
COc1cccc(-n2nnnc2SCC(=O)N2CCCc3ccccc32)c1 | active: 5.62 µM
CCOC(=O)c1c(C)oc2c1c(C=NCCO)c(O)c1ccccc12 | inconclusive [inhibitor, single point]
O=C(COC(=O)c1c(F)cccc1F)Nc1ccc2[nH]c(=O)[nH]c2c1 | inconclusive [inhibitor, single point]
COCCNC(=O)C1(C)C=CCN1C(C)=O (centres undefined) | inactive
COc1ccc(C(=O)/C(=C/c2cccs2)c2nc3ccccc3o2)cc1 | active: 2 µM
Cc1ccc(OCC(O)CN2CC3(C)CC2CC(C)(C)C3)cc1 (centres undefined) | inconclusive [inhibitor, single point]
COC(=O)c1cccc(S(=O)(=O)N(Cc2ccco2)Cc2cc3ccc(OC)cc3[nH]c2=O)c1 | inconclusive [inhibitor, single point]
Cc1cccc(-n2c(N)cc(=O)nc2SCC(=O)Nc2ccccc2)c1 | inactive
c1ccc(CC2CCN(c3nc4ccccc4n4nnnc34)CC2)cc1 | inconclusive [inhibitor, single point]
Cc1ccc(Cl)cc1NC(=O)COC(=O)c1ccccc1O | inconclusive [inhibitor, partial curve]
CCN(CC)C(=O)CN(c1cccc([N+](=O)[O-])c1)S(=O)(=O)c1ccccc1 | inactive
CC(=O)CC(=O)Nc1cccc2c1CCCC2 | inconclusive [inhibitor, full curve]
CCOC(=O)N1CCC(Nc2c(Nc3ccc(C)c(C)c3)c(=O)c2=O)CC1 | inconclusive [inhibitor, single point]
CCCCC[C@H](O)/C=C\[C@H]1[C@H](C/C=C\CCCC(=O)O)[C@@H](O)C[C@H]1O (tested in a mixture with another compound) | inactive
COc1cccc(-c2nnc(SCC(=O)N3CCCC3=O)n2-c2ccccc2)c1 | inconclusive [inhibitor, partial curve]
COC(=O)c1ccccc1NC(=O)CN1CCCCC1 | inactive
COc1ccc(-c2nn(CCC(=O)O)cc2/C=C2\SC(N)=NC2=O)cc1 | inactive
CSC1=N/C(=C/c2cccnc2)C(=O)N1Cc1ccc(Cl)cc1 | inconclusive [inhibitor, single point]
CCOC(=O)C1(CC2CCCCO2)CCN(S(=O)(=O)c2ccccc2)CC1 (centres undefined) | inconclusive [inhibitor, single point]
CC1(C)NC(=O)N(CCCCOc2ccc3c(c2)CCC3)C1=O | inconclusive [inhibitor, single point]
O=C(O)Cc1sc(-c2ccccc2)nc1-c1ccccc1 | inactive
COc1ccc(N2C(=O)CC(N3CCC(O)(c4ccc(Cl)cc4)CC3)C2=O)cc1 (centres undefined) | inconclusive [inhibitor, single point]

Structure (SMILES) | Potency
COc1ccc(-c2nsc3c(N4CCCCC4)ncnc23)cc1 | inconclusive [inhibitor, single point]
O=C(CC1S/C(=N/N=C/c2cccnc2)NC1=O)Nc1ccccc1 (centres undefined) | inactive
Cc1nn(-c2ccccc2)c2nc3c(cc12)C(=O)CCC3 | inactive
COc1ccccc1-c1cc(C(=O)NCc2ccccc2)no1 | inconclusive [inhibitor, single point]
Cc1cc(=O)[nH]c(SCC(=O)NCc2ccco2)n1 | inactive
CC(=O)n1cc([C@H]2C=C(C(=O)NCc3ccccc3)O[C@@H](OCc3ccc(CO)cc3)C2)c2ccccc21 | active: 15.8 µM
CCNc1ncc2nc(-c3cc(F)cc(F)c3)c(=O)n(CCc3ccccc3)c2n1 | inconclusive [inhibitor, partial curve]
CCCCC[C@H](O)/C=C/[C@H]1[C@H](O)CC(O)[C@@H]1C/C=C\CCCC(=O)O (some centres undefined) | inactive
CCOC(=O)N1CCN(C(=O)CN2C(=O)COc3ccc(C(C)(C)C)cc32)CC1 | inactive
Cc1nn(-c2ccccc2)c2c1C(c1ccco1)C(C#N)=C(N)O2 (centres undefined) | active: 1 µM
CCOC(=O)C1CCCCN1Cc1ccc(F)c(Br)c1 (centres undefined) | inconclusive [inhibitor, partial curve]
CCOC(=O)C(=Cc1ccc(-n2ccnc2)cc1)C(=O)OCC | inconclusive [inhibitor, partial curve]
CCOC(=O)N/N=C(\C)c1ccc(OC(F)F)cc1OC(F)F | inactive
O=C(Nc1cccc(S(=O)(=O)NC2=NCCC2)c1)c1cc(-c2ccco2)nc2ccccc12 | inconclusive [inhibitor, partial curve]
COc1ccccc1-c1c(-c2ccc(OCC(=O)NN)cc2O)n[nH]c1C(F)(F)F | inconclusive [inhibitor, single point]
O=C(Cc1ccc(S(=O)(=O)N2CCCC2)s1)NC1CCCCCC1 | inconclusive [inhibitor, single point]
S=C(NCc1cccs1)Nc1cc(Cl)cc(Cl)c1 | inconclusive [inhibitor, partial curve]
COc1ccc(Nc2ncnc3sc(-c4ccccc4)cc23)cc1OC | inconclusive [inhibitor, single point]
CC1CCN(Cc2c(C#N)c3ccccc3n2C)CC1 | active: 31.6 µM
O=C1/C(=C/c2ccccc2)Oc2cc(OC(=O)N3CCOCC3)ccc21 | inconclusive [inhibitor, single point]
CCCOc1ccc(C(=O)Nc2ccc(C)cc2[N+](=O)[O-])cc1 | inactive
Cc1ccc(/C=N/N2CCN(Cc3ccccc3)CC2)o1 | inconclusive [inhibitor, single point]
CCCCC(CC)CN1C(=O)/C(=C/c2ccncc2)SC1=S (centres undefined) | inconclusive [inhibitor, full curve]
O=[N+]([O-])c1ccc(Sc2nnnn2-c2ccccc2)nc1 | active: 22.4 µM
Cc1ccc(NS(=O)(=O)c2ccccc2Cl)c2c1CC(C)(C)O2 | inconclusive [inhibitor, single point]

Structure (SMILES) | Potency
COc1ccc(S(=O)(=O)N(c2onc(C)c2Cl)S(=O)(=O)c2ccc(OC)c(OC)c2)cc1OC | inconclusive [inhibitor, partial curve]
CC1(C)Cc2c(sc3c2c(=N)n(Cc2ccco2)c(=O)n3CC(=O)Nc2ccc(Cl)cc2)CO1 | active: 20 µM
CC(C)COC(=O)C(C)Nc1n[nH]c(=S)[nH]c1=O (centres undefined) | inactive
COCc1ccc([C@@H]2C[C@H]3CN(Cc4ccccc4C)C(=O)[C@]34CCCN24)o1 | active: 20 µM
Cn1c(=O)c2[nH]c(CS(=O)(=O)Cc3nc4c([nH]3)c(=O)n(C)c(=O)n4C)nc2n(C)c1=O | inconclusive [inhibitor, partial curve]
O=Cc1ccc(OCC(=O)NC(=O)NC2CCCCC2)cc1 | inconclusive [inhibitor, single point]
CCOC(=O)C(NC(=O)c1ccc(OC)cc1)(N1CCCC1=O)C(F)(F)F (centres undefined) | inactive
CN(C(=O)c1cnc2n(c1=O)CCS2)C1CCCCC1 | inconclusive [inhibitor, single point]
O=C(CCO)c1ccc(O)cc1 | inconclusive [inhibitor, single point]
CN1CCC(N(C)C(=S)NC(=O)c2cc(-c3cccc(Br)c3)nc3ccccc23)CC1 | inconclusive [inhibitor, single point]
Cc1ccccc1OCC(=O)N1N=C(C(F)(F)F)CC1(O)C(C)(C)C (centres undefined) | active: 14.1 µM
O=C(NNC(=S)Nc1ccccc1)C1CC1 | inactive
c1ccc(CN2CCN(c3nc(-c4ccccn4)nc4ccccc34)CC2)cc1 | inconclusive [inhibitor, single point]
N#C/C(=C\c1cccnc1)C(=O)Nc1cccc2ccccc12 | inconclusive [inhibitor, single point]
Cc1cc(C)n(CCc2nc(-c3cc4ccccc4o3)cs2)n1 | inconclusive [inhibitor, single point]
CCOC(=O)c1c(C)nc2c(C#N)cnn2c1C | inconclusive [inhibitor, single point]
CN(C)S(=O)(=O)c1cccc(NC(=S)Nc2ccc(Cl)cc2Cl)c1 | active: 12.6 µM
CCN(CC)/C(N)=N/c1nc(C)cc(C)n1 | inactive
CC1CCc2cc(F)ccc2N1C(=O)c1cccs1 (centres undefined) | inconclusive [inhibitor, single point]
O=C(C1CCCN(S(=O)(=O)c2cnc[nH]2)C1)N1CCN(c2ccc(Cl)cc2)CC1 (centres undefined) | inactive
COc1ccc(Nc2ccc(S(=O)(=O)N3CCCCC3)cc2[N+](=O)[O-])cc1Cl | inconclusive [inhibitor, single point]
COc1ccc(N2CCN(C(=O)c3c(C)nn(-c4ccccc4)c3C)CC2)cc1 | inactive
Cc1ccc(S(=O)(=O)NN=C2CCC(C(C)(C)C)CC2)cc1[N+](=O)[O-] (centres undefined) | active: 6.31 µM
Nc1nc(-c2ccco2)c(-c2ccco2)s1 | inconclusive [inhibitor, single point]
